Consider 62 molecules from ChEMBL document CHEMBL1201862, “PubChem BioAssay data set” (2004).

Where a name gives a salt, the structure may show the parent alone.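 Following 48 hours of exposure in 96-well plates, responses at five concentrations were used to interpolate endpoints linearly. GI50 = concentration required for 50% inhibition of growth.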 Activity calls are given as the source filed them. No stated cut-off is given here; in the data, active = GI50 up to about 1.1 µM and inactive = higher. Square brackets hold non-standard residues; d marks the D form. Peptide text beside a SMILES is read from it. * marks the point of attachment. ξ: configuration not given here. X20 = COC1=CC(=O)N(C(=O)C(O*)C(C)C)C1Cc1ccccc1; ξNMe2Val = CC(C)C(C(=O)*)N(C)C; NMeV = CN[CH](C(=O)O)C(C)C

The experiment relates to NCI-H322M. Description: inhibition of tumour cell growth, NCI panel, 48 h.
Turning to `COC1=CC(=O)N(C(=O)C(OC(=O)C2CCCN2C(=O)C2CCCN2C(=O)C(C(C)C)N(C)C(=O)C(NC(=O)C(C(C)C)N(C)C)C(C)C)C(C)C)C1Cc1ccccc1` (configuration not stated) (ξNMe2Val-V[NMeV]PP-X20; configuration not given here), the GI50 was active: 0.00843 µM.
For the molecule `O=C(O)c1ccccn1` [2-PICOLINIC ACID], the GI50 is inactive: > 100 µM.
As to `COc1ccc(-c2oc3c(OC)c(OC)c(OC)c(OC)c3c(=O)c2OC)cc1OC` [3,5,6,7,8,3',4'-HEPTAMETHOXYFLAVONE], the GI50 is inactive: 64.7 µM.
The result for `COc1ccc(-c2oc3ccccc3c(=O)c2O)cc1OC` [3-HYDROXY-3',4'-DIMETHOXYFLAVONE] reads inactive: > 100 µM.
On to `CN1C(=O)CSC1=S` [3-METHYL-RHODANINE], for which the GI50 was inactive: > 100 µM.
On to `Cc1ccc2cc3c(ccc4ccccc43)c3c2c1CC3` [3-METHYLCHOLANTHRENE], for which the GI50 is inactive: > 100 µM.
With `COc1ccc(-c2coc3cc(OC)cc(O)c3c2=O)cc1` [4',7-DIMETHOXY-5-HYDROXYGENISTEIN], the GI50 was inactive: > 100 µM.
With `C=CC(C1=CC(=O)C(OC)=CC1=O)c1ccccc1` (configuration not stated) [4-METHOXYDALBERGIONE], the GI50 was inactive: 15.2 µM.
Next, `COc1ccc(-c2cc(=O)c3c(O)c(OC)c(OC)c(OC)c3o2)cc1OC` [5-DEMETHYLNOBILETIN]: inactive: > 100 µM.
Next, `COc1c(O)c(C=O)c2c(O)c(-c3c(C)cc4c(C(C)C)c(OC)c(O)c(C=O)c4c3O)c(C)cc2c1C(C)C` [6,6'-METHOXYGOSSYPOL]: inactive: 5.32 µM.
For `Nc1nc(OCc2ccccc2)c2nc[nH]c2n1` [6-O-BENZYLGUANINE], the GI50 was inactive: 91 µM.
As for `CCc1c2c(nc3ccc(O)cc13)-c1cc3c(c(=O)n1C2)COC(=O)[C@]3(O)CC` [7-ETHYL-10-HYDROXYCAMPTOTHECIN], the GI50 was active: 0.00187 µM.
In the case of `CN(C)CCCN1c2ccc(O)cc2Sc2ccc(Cl)cc21` [7-HYDROXYCHLORPROMAZINE], the GI50 was inactive: 14.5 µM.
Take `Nc1nc(O)c2[nH]nnc2n1` [8-AZAGUANINE]: the GI50 was inactive: 20.9 µM.
`O=C1C=C2S[C@H]3C[C@]2(C=C1Br)C1=C(N3)C(=O)c2[nH]cc3c2C1=NCC3` [(+)-DISCORHABDIN B]: the GI50 is inactive: 2.99 µM.
Take `CO[C@@H]1C=C[C@@]23c4cc5c(cc4CN(C[C@@H]2O)[C@H]3C1)OCO5` [(+)-HAEMANTHAMINE]: the GI50 was inactive: 18.2 µM.
The result for `COc1cc(/C=C/c2ccc(OC)c(OC)c2)cc(OC)c1` [(E)-3,4,3',5'-TETRAMETHOXYSTILBENE] reads inactive: 37.4 µM; that for `CC(C)C1=CC2=CC[C@@H]3[C@](C)(CCC[C@@]3(C)C(=O)O)[C@H]2CC1` [ABIETIC ACID], inactive: 65.3 µM; that for `CC(=O)OC(/C=C1/C=CC(=O)O1)COC(=O)c1ccccc1` (configuration not stated) [ACETYLMELODORINOL], inactive: > 31.2 µM.
Take `CCCCOC(=O)CC(CC(=O)OCCCC)(OC(C)=O)C(=O)OCCCC` [ACETYLTRIBUTYL CITRATE]: the GI50 was inactive: > 200 µM.
As for `CC(=O)N(C)c1ccc(Nc2cc(C)nc3ccc4nc[nH]c4c23)cc1` [ACODAZOLE HYDROCHLORIDE], the GI50 is inactive: 8.17 µM.
Next, `CC(=O)NCC1(c2ccccc2)CCN(CC2COc3ccccc3O2)CC1` (configuration not stated) [ACOXATRINE]: inactive: > 100 µM; `COc1cc2c(c3c1c(=O)c1ccccc1n3C)C=CC(C)(C)O2` [ACRONINE]: inactive: > 100 µM.
On to `COc1ccc2c(=O)c3ccoc3n(CC=C(C)C)c2c1` [ACROPHYLLINE], for which the GI50 is inactive: 74.3 µM.
The result for `C[C@]12CC[C@H](OC3OC(CO)C(O)C(O)C3O)C[C@H]1CC[C@@H]1[C@@H]2CC[C@]2(C)[C@@H](C3=CCOC3=O)CC[C@]12O` (some centres not stated) [ACTODIGIN] reads inactive: 26.1 µM; that for `Nc1ccc(S(=O)(=O)c2ccc(NCN3C(=O)NC(=O)C(=O)C3=O)cc2)cc1` [ALLANTODAPSONE], inactive: > 100 µM.
On to `O=C1c2cccc(O)c2C(=O)c2c(O)cc(CO)cc21` [ALOE-EMODIN], for which the GI50 is inactive: 48.6 µM.
For the molecule `O=C1Cc2c([nH]c3ccc([N+](=O)[O-])cc23)-c2ccccc2N1` [ALSTERPAULLONE], the GI50 is active: 0.282 µM.
The result for `CC1=C2CC3=C(C)C(=O)O[C@H]3C[C@@H](C)[C@@H]2CC1` [AMERICANOLIDE D] reads inactive: > 100 µM; that for `Nc1ccc(C(=O)O)cc1` [AMINOBENZOIC ACID], inactive: > 100 µM.
For `Cc1c(F)c(N)c2c(=O)cc(-c3ccc(N)c(F)c3)oc2c1F` [AMINOFLAVONE], the GI50 is inactive: 23.9 µM.
With `CCC1(c2ccc(N)cc2)CCC(=O)NC1=O` (configuration not stated) [AMINOGLUTETHIMIDE], the GI50 was inactive: 3690 µM.
For `CCCCc1oc2ccccc2c1C(=O)c1cc(I)c(OCCN(CC)CC)c(I)c1` [AMIODARONE HYDROCHLORIDE], the GI50 is inactive: 4.93 µM.
As for `CN(C)CCN1C(=O)c2cccc3cc(N)cc(c23)C1=O` [AMONAFIDE], the GI50 was inactive: 4.43 µM.
For the molecule `COc1cc(NS(C)(=O)=O)ccc1Nc1c2ccccc2nc2ccccc12` [AMSACRINE], the GI50 was inactive: 3.78 µM.
In the case of `N=c1ccn2c(n1)O[C@H]1[C@H](O)[C@@H](CO)O[C@H]12` [ANCITABINE HYDROCHLORIDE], the GI50 was inactive: 778 µM.
Next, `C=C1[C@@H]([C@@]2(C)C=CC(=O)C(C)(C)[C@@H]2CC(=O)OC)CC[C@@]2(C)[C@H](c3ccoc3)OC(=O)[C@H]3O[C@]132` [ANDIROBIN]: inactive: > 100 µM.
In the case of `COc1ccc(C[C@H]2NC[C@H](O)[C@H]2OC(C)=O)cc1` [ANISOMYCIN], the GI50 is active: 0.0208 µM.
As for `CCCC[C@H]1C(=O)O[C@H](C)[C@H](NC(=O)c2cccc(NC=O)c2O)C(=O)O[C@@H](C)[C@@H]1OC(=O)CC(C)C` [ANTIMYCIN A3], the GI50 is inactive: 11.7 µM.
As for `O=C1CC[C@H](NC(=O)Cc2ccccc2)C(=O)N1` [ANTINEOPLASTON A10], the GI50 is inactive: > 1250 µM.
Next, `O=c1cc(-c2ccc(O)cc2)oc2cc(O)cc(O)c12` [APIGENIN]: inactive: 29.9 µM; `COc1ccc(C/C(=N/O)C(=O)NCCc2cc(Br)c(OCCCN(C)C)c(Br)c2)cc1Br` [APLYSAMINE 2]: inactive: 16.8 µM.
Consider `CC[C@@]1(O)C(=O)OCc2c1cc1n(c2=O)Cc2c-1nc1ccc(O)cc1c2[Si](C)(C)C(C)(C)C` [AR-67], for which the GI50 is active: 0.0313 µM.
Turning to `COc1cccc2c1cc([N+](=O)[O-])c1c(C(=O)O)cc3c(c12)OCO3` [ARISTOLOCHIC ACID], the GI50 is inactive: 55.3 µM.
Consider `Nc1ccc([As](=O)(O)O)cc1` [ARSANILIC ACID], for which the GI50 is inactive: > 100 µM.
For `C[N+]1(C)[C@@H]2CC[C@H]1C[C@@H](OC(=O)C(CO)c1ccccc1)C2` (some centres not stated) [ATROPINE METHYLBROMIDE], the GI50 was inactive: > 100 µM.
`COc1cc([C@@H]2c3cc4c(cc3C[C@H]3COC(=O)[C@@H]32)OCO4)cc2c1OCO2` [AUSTROBAILIGNAN 1]: the GI50 was active: < 0.01 µM.
For `CCOC(=O)C1=C(C)NC(C)=C(C(=O)OCCNC(=O)c2ccc(N=[N+]=[N-])cc2)C1c1ccccc1C(F)(F)F` (configuration not stated) [AZIDOPINE], the GI50 was inactive: 22.4 µM.
As to `C[C@H](N)C(=O)N[C@@H]1[C@H]2C(=C(O)C[C@@H](O)[C@@H]2O)C(=O)O[C@]1(C)C(Cl)Cl` [BACTOBOLIN], the GI50 is active: 0.201 µM.
For the molecule `CC1(C)CC[C@]2(C(=O)O)CC[C@]3(C)[C@H](C(=O)C=C4[C@@]5(C)C=C(C#N)C(=O)C(C)(C)[C@@H]5CC[C@]43C)[C@@H]2C1` [BARDOXOLONE], the GI50 was active: 0.575 µM.
Take `CCCCCCCCCCCCCC(=O)O[C@H]1CC[C@H](NC(=O)[C@H](OC)[C@H](O)[C@@H](O)[C@H](O)/C=C/C(C)C)C(=O)NC1` [BENGAMIDE A]: the GI50 was active: 0.0289 µM.
As for `CCCCCCCCCCCCCC(=O)O[C@H]1CC[C@H](NC(=O)[C@H](OC)[C@H](O)[C@@H](O)[C@H](O)/C=C/C(C)C)C(=O)N(C)C1` [BENGAMIDE B], the GI50 is inactive: > 15 µM.
On to `CC(C)(C)CC(C)(C)c1ccc(OCCOCC[N+](C)(C)Cc2ccccc2)cc1` [BENZETHONIUM CHLORIDE], for which the GI50 is inactive: 10.5 µM.
The result for `CN1[C@@H]2CC[C@H]1C[C@@H](OC(c1ccccc1)c1ccccc1)C2` [BENZTROPINE MESYLATE] reads inactive: 24 µM; that for `S=C=NCc1ccccc1` [BENZYL ISOTHIOCYANATE], inactive: 13.9 µM; that for `COc1cc([C@@H]2c3cc4c(c(O)c3C[C@H]3COC(=O)[C@@H]32)OCO4)cc(OC)c1OC` [BETA-PELTATIN A], active: 0.015 µM.
As for `CC[C@H](CC[C@@H](C)[C@H]1CC[C@H]2[C@@H]3CC=C4C[C@@H](O)CC[C@]4(C)[C@H]3CC[C@]12C)C(C)C` [BETA-SITOSTEROL], the GI50 is inactive: > 100 µM.
For `C[N+]1(C)C[C@@H](O)C[C@@H]1C(=O)[O-]` [BETONICINE], the GI50 was inactive: > 100 µM.
In the case of `COc1ccc(-c2oc3cc(O)c(OC)c(O)c3c(=O)c2O)cc1` [BETULETOL], the GI50 was inactive: 20.2 µM.
Regarding `C=C(C)[C@@H]1CC[C@]2(C(=O)O)CC[C@]3(C)[C@H](CC[C@@H]4[C@@]5(C)CC[C@H](O)C(C)(C)[C@@H]5CC[C@]43C)[C@@H]12` [BETULINIC ACID], the GI50 was inactive: 10.6 µM.
The result for `C=C(C)[C@@H]1CC[C@]2(CO)CC[C@]3(C)[C@H](CC[C@@H]4[C@@]5(C)CC[C@H](O)C(C)(C)[C@@H]5CC[C@]43C)[C@@H]12` [BETULIN] reads inactive: 3.58 µM.
The result for `COC1=CC(=O)c2c(c(O)c3oc4cc(OC)cc(C)c4c(=O)c3c2O)C1=O` [BIKAVERIN] reads inactive: 4.53 µM.
